Data as given in article PMC4336329 (PLoS ONE, 2015).
Out of some 310,000 compounds screened, about 14,000 (4.5%) showed an effect of 50% or more. The effect is printed as a negative number. The list shows a part of the results.

Target: human ether-à-go-go-related gene (hERG) potassium channel (human, UniProt Q12809)
Assay: primary screen, population patch clamp on CHO cells stably expressing hERG
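Note: peak tail current of the secondary pulse compared with the same well before compound.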

human ether-à-go-go-related gene (hERG) potassium channel, sequence (Q12809 whole entry, looked up): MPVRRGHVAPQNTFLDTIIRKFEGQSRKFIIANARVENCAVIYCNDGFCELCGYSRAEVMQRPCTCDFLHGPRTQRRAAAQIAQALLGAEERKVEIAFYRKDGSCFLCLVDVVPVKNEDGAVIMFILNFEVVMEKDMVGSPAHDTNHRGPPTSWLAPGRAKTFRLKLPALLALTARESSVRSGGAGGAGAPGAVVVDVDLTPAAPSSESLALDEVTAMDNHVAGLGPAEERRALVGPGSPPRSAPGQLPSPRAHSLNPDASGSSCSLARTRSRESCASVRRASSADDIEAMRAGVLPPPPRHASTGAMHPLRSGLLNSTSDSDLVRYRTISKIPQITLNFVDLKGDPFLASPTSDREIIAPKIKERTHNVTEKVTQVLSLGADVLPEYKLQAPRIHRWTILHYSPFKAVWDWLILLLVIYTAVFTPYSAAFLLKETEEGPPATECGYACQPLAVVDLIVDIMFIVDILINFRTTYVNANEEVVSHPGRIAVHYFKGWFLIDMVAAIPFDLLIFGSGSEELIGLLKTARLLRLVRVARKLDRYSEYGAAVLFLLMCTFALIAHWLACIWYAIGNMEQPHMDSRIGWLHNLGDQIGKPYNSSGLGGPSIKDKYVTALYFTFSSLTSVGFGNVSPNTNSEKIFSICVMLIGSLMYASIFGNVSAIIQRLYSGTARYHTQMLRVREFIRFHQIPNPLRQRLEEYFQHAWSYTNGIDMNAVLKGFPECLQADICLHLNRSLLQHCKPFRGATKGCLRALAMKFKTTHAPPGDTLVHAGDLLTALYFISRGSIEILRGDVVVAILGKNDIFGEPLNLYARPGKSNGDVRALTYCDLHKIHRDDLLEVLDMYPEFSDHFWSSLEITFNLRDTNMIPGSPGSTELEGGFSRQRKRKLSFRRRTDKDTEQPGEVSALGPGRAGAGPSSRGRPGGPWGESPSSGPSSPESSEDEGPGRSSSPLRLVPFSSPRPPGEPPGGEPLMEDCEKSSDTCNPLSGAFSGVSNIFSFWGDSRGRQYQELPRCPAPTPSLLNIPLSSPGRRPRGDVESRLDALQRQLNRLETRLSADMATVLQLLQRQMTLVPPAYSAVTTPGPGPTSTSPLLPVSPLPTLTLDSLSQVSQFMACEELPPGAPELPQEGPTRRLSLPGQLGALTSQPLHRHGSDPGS

SMILES	hERG current change (%, negative = inhibition) at 10uM [%]
Cc1cc(Cl)ccc1C(=O)C1CCCN(C(=O)c2cnsn2)C1 (centres unmarked)	-9.68
COc1ccc(OC)c(NC(=O)c2ccc(CN(c3cc(Cl)ccc3C)S(=O)(=O)c3ccccc3)cc2)c1	-10.1
CCOC(=O)N1CCN(C(=O)C2CCCN(S(=O)(=O)c3cc(C)ccc3OC)C2)CC1 (centres unmarked)	-5.57
COc1ccc(C(O)P(=O)(OCc2ccccc2)c2ccc(N(C)C)cc2)cc1 (centres unmarked)	15.4
CCCOc1c(Br)cc(C2C3=C(CCCC3=O)N(C)C3=C2C(=O)CCC3)cc1OC	-24.5
CCOc1ccc(OCc2cccc(C(=O)N3CCCC3)c2)cc1	-11.6
COC(c1ccc(Cl)cc1)(c1ccc(Cl)cc1)C(Oc1nccc(C)n1)C(=O)O (centres unmarked)	19.1
Cc1cc[n+](CC2OCc3ccccc3CO2)cc1.[Br-]	14.8
C/C(=N\NC(=S)NC1CCCCC1)c1cccs1	-3.57
Clc1ccc(-c2nc3ncccn3c2Nc2ccc3c(c2)OCCO3)cc1	22.2
COc1ccc(CNC(=O)C(NC(C)=O)C(=O)Nc2ccc(C(C)C)cc2)cc1 (centres unmarked)	19.5
O=C1CCc2cc(S(=O)(=O)N3CCN(c4ccccc4)CC3)cc3c2N1CCC3	1.52
Cc1cc(C)cc(NC(=O)CSc2nc3c(c(=O)[nH]2)CN(Cc2ccc(F)cc2)CC3)c1	-11
N#Cc1cnc(Oc2ccc(Cl)cc2)nc1N	10.9
O=C(NCc1ccccc1F)C(=O)NCC1OCCCN1S(=O)(=O)c1cccs1 (centres unmarked)	9.19
N/C(CSc1ccccn1)=N\OCc1c(Cl)cccc1Cl	-5.24
O=S(=O)(NCc1nnc2ccccn12)c1ccc(Cl)cc1	5.97
CCCCN(CC)C(=O)Cn1ncc2c3ccccc3n(CCC)c2c1=O	-46.4
CNC(=S)N/N=C/c1c2ccccc2c(Cl)c2ccccc12	18
COC(=O)c1c(C(=O)OC)c(-c2ccccc2)n2c1CS(=O)C2 (centres unmarked)	11
O=C(c1cccc(S(=O)(=O)Nc2ccc(F)cc2)c1)N1CCC1	4.11

SMILES	hERG current change (%, negative = inhibition) at 10uM [%]
COc1cc2nc(N(C)C)nc(N)c2cc1OC.Cl	-16
CCNC(=O)C1CCCN1C(=O)C(CCCN=C(N)N)NC(=O)C(CC(C)C)NC(=O)C(Cc1cn(Cc2ccccc2)cn1)NC(=O)C(Cc1ccc(O)cc1)NC(=O)C(CO)NC(=O)C(Cc1c[nH]c2ccccc12)NC(=O)C(Cc1cnc[nH]1)NC(=O)C1CCC(=O)N1 (centres unmarked)	6.74
COc1ccc2c(c1)c(C(=O)N1CCN(C)CC1)c(C)n2-c1ccccc1	-44
O=C(Cc1cccs1)N/N=C/c1ccccn1	-7.62
C/C(=N\N=C1\NC(=O)C(CC(=O)Nc2ccc(C)c(Cl)c2)S1)C(C)C (centres unmarked)	12.2
Cc1ccc2nc(-c3cccc(Br)c3)cc(C(=O)NCC3CCCO3)c2c1 (centres unmarked)	8.66
O=C(NCCNC(=O)c1ccco1)c1cccc(F)c1	9.02
c1csc(-c2nc(CN3CCSCC3)cs2)c1	14.2
COCC1CCN(C(=O)C2CCC(=O)N(Cc3cccc(F)c3)C2)CC1 (centres unmarked)	-6.81
COc1ccc(CN2CCN(c3ccccc3)CC2)c(C)c1C	-13.8
CCOC(=O)CCC(NC(=O)CCCCCCCCC(=O)NC(CCC(=O)OCC)C(=O)OCC)C(=O)OCC (centres unmarked)	-14.7
CCOC(=O)c1ccc2c(c1)n(CCCS(=O)(=O)[O-])c(/C=C/c1ccc(Cl)cc1)[n+]2CC	-23.1
COc1ccccc1Nc1nc(NCCC(C)C)nc(N)c1[N+](=O)[O-]	11.5
COCCCN1C(=O)c2ccccc2C1C(=O)NC1CCCCCC1 (centres unmarked)	-2.83
CCNC(=S)Nc1ccc(Oc2ccccc2)cc1	7.36
COc1cccc(NC(=O)C(NCC2CCCCC2)c2ccccc2)c1.O=C(O)C(=O)O (centres unmarked)	-3.83
CCOc1ccccc1NC(=O)c1ccc(CN2CCc3ccccc3C2)cc1	6.53
CC(C)c1ccc(C2CC(=O)c3cnc(N4CCc5ccccc5C4)nc3C2)cc1 (centres unmarked)	0.754
COc1ccc(CC(=O)Nc2nc(C)cs2)cc1OC	-17.4
CC1(C)NC(=O)N(CC(=O)OCC(=O)Nc2cc(S(=O)(=O)N3CCCCCC3)ccc2Cl)C1=O	-17.3
